# Experimental data from PubChem BioAssay AID588342 (National Center for Advancing Translational Sciences (NCATS), 2011).
# Out of some 360,000 compounds screened, about 25,000 (6.9%) were called active. Inconclusive means that the source gave no clear call. Such entries were picked first, then a sample of the others. Calls follow the shape of the dose curve; as a rule, active = well fitted inhibition curve with a large enough effect; inconclusive = small, poorly fitted or top-dose-only effect; inactive = flat fitted curve, though single readings scatter. Potencies beside an inconclusive call are fits to weak or partial responses and may not hold up.
# Biological target: Luciferin 4-monooxygenase (Photinus pyralis) (UniProt P08659)
# Experiment: qHTS profiling assay for firefly luciferase inhibitor/activator using purifed enzyme and Km concentrations of substrates (counterscreen for miR-21 project); also: nearly all actives have a fitted effect of over 55% in size;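 as to activity change, negative = inhibition: plate controls were vehicle for no effect and reference inhibitor for full effect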
# Settings: purified FLuc, luminescence inhibition; activity change, negative = inhibition: at 57.5 µM (top of the series)
# How it was run: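 Purified P. pyralis luciferase (10nM final) with 10uM D-luciferin and 10uM ATP (Km levels) in 50mM Tris acetate pH 7.5, 10mM Mg acetate, 0.01% Tween-20, 0.05% BSA; qHTS 6-point titration, ~60 µM downward; luminescence read.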
# Potency is read from the fitted curve at half-maximal effect; tags tell the direction and shape of the fitted curve.
# UniProt P08659, sequence (P08659 whole entry, looked up): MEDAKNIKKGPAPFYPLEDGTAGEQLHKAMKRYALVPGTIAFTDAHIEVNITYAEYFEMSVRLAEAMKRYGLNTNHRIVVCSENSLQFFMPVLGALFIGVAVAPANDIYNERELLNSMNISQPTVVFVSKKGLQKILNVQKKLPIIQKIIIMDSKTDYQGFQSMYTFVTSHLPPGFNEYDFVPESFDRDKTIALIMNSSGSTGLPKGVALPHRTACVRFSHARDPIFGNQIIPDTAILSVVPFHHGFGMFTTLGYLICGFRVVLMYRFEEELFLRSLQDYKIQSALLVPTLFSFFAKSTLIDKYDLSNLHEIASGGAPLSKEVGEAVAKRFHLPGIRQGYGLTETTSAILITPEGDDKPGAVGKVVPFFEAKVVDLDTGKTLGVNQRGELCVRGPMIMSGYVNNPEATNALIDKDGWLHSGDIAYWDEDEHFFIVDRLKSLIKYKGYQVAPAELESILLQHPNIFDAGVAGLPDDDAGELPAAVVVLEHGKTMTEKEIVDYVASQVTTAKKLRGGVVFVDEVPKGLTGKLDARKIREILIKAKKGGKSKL
SMILES,Potency,"activity change, negative = inhibition"
O=C(O)c1ccc2c(c1)C(=O)N(CCc1c[nH]c3ccccc13)C2=O,active: 16.9 µM,–
CCc1ccc(NC(=O)C(=O)NCCc2sc(-c3ccc(OC)c(OC)c3)nc2C)cc1,–,inactive: -1.45%
Nc1nc(-c2ccccn2)nc(N)c1Cc1ccccc1F,active: 15.1 µM,–
CCc1ccc(NC(=O)CSc2nc(-c3ccccc3)no2)cc1,"inconclusive: 37.9 µM [inhibitor, partial curve, poor fit]",–
COc1ccc(CCNc2ncnc3c2nnn3C)cc1OC,–,inactive: -1.66%
COc1ccc(NCc2n[nH]c(=O)c3ccccc23)cc1,"inconclusive: 15.1 µM [inhibitor, partial curve]",–
CN(C)S(=O)(=O)N(CC(=O)Nc1ccc(Br)cc1F)c1ccccc1,–,inactive: -13.9%
O=C(Nc1ccc(Cl)c(Cl)c1)C1CCCCC1,"inconclusive: 21.3 µM [inhibitor, single point]",–
COc1cccc(OCCNc2cc(N3CCOCC3)ccc2[N+](=O)[O-])c1,"inconclusive: 15.1 µM [inhibitor, partial curve]",–
O=C(Nc1ccccc1Oc1ccccc1)c1cccs1,–,inactive: 6.13%
COc1ccccc1C(=O)NCCC(=O)Nc1cccc(C)n1,"inconclusive: 21.3 µM [inhibitor, partial curve, poor fit]",–
COc1ccc(NC(=S)N2CCN(C(=O)C3CCCO3)CC2)cc1 (configuration not stated),–,inactive: 0.859%
NC(=O)c1ccsc1NC(=O)c1ccc(S(=O)(=O)N2CCCC2)cc1,"inconclusive: 23.9 µM [inhibitor, partial curve, poor fit]",–
COc1cccc(NC(=O)Cn2c(=O)n(-c3cccc(OC)c3)c(=O)c3sc4ccccc4c32)c1,–,inactive: -4.84%
CCCCNC(=O)CCCN1C(=O)CCn2nc(-c3cccn3C)cc21,–,inactive: -0.629%
O=C1CCCC(O)=C1C(C#Cc1ccccc1)C1=C(O)CCCC1=O,"inconclusive: 23.9 µM [inhibitor, partial curve, poor fit]",–
Cc1ccc(-c2nnc(Cc3ccc([N+](=O)[O-])cc3)o2)cc1,–,inactive: -1.9%
CC1CCCN(C(=O)C2CC(=O)N(c3ccc(Cl)cc3)C2)C1 (configuration not stated),–,inactive: -2.97%
COC(=O)c1cc(C(=O)Nc2nc3ccccc3[nH]2)cc([N+](=O)[O-])c1,active: 4.78 µM,–
O=C(CNc1cccc(Cl)c1)c1ccc(Cl)cc1,"inconclusive: 4.78 µM [inhibitor, partial curve, poor fit]",–
CCCCCNc1nc(-c2ccccc2)cs1,active: 1.9 µM,–
CC(=O)Nc1sc2c(c1C#N)CCCCC2,"inconclusive: 42.6 µM [inhibitor, single point]",–
Fc1cccc(NCc2ccccc2-c2nnc(-c3ccccc3Cl)o2)c1,"inconclusive: 3.01 µM [inhibitor, partial curve]",–
CC12CC3CC(C)(C1)CC(C(=O)NCc1cccnc1)(C3)C2,–,inactive: 0.946%
Cc1ccc(C(=O)Oc2ccc(C(=O)COC(=O)C3CC(=O)N(Cc4ccco4)C3)cc2)cc1 (configuration not stated),"inconclusive: 13.5 µM [inhibitor, partial curve]",–
Cc1ccc(O)c(NC(=O)CCC2CCCCC2)c1,active: 7.57 µM,–

SMILES,Potency,"activity change, negative = inhibition"
CCOc1ccc(OCc2ccc(C(=O)Nc3cccc(C)n3)o2)cc1,"inconclusive: 37.9 µM [inhibitor, partial curve, poor fit]",–
Cc1c(C(=O)N2CCOCC2)sc2ncnc(N3CCc4ccccc4C3)c12,"inconclusive: 21.3 µM [inhibitor, partial curve, poor fit]",–
COc1cccc(C(=O)Nc2cccc(OC(C)=O)c2)c1,"inconclusive: 23.9 µM [inhibitor, partial curve]",–
Cc1ccc(NC(=O)CSCC(=O)NC2CCCCC2)cc1,–,inactive: -3.2%
O=C(c1cc(COc2ccccc2)on1)N1CCCC(CN2CCOCC2)C1 (configuration not stated),"inconclusive: 37.9 µM [inhibitor, partial curve, poor fit]",–
N#CCCN(C(=O)COC(=O)CCN=C1NS(=O)(=O)c2ccccc21)c1ccc(F)cc1,–,inactive: 6.01%
O=C1CSC(c2ccccn2)N1c1ccc(Br)cc1 (configuration not stated),–,inactive: 0.847%
O=C(Nc1ccc(Br)cc1)c1cccc(NC(=O)C2C3CC4OC(=O)C2C4C3)c1 (configuration not stated),"inconclusive: 23.9 µM [inhibitor, partial curve]",–
COCc1ccc2oc(C(=O)O)cc2c1,"inconclusive: 23.9 µM [inhibitor, single point]",–
Cc1occc1C(=O)Nc1cccc(Cl)c1Cl,–,inactive: -19.6%
COc1ccc(NC(=S)N2CCN(C(=O)c3ccccc3)CC2)cc1,–,inactive: -0.0572%
O=C(COC(=O)C12CC3CC(CC(O)(C3)C1)C2)Nc1ccc(OC(F)F)cc1,"inconclusive: 21.3 µM [inhibitor, partial curve]",–
O=C(N[C@H]1CCCCNC1=O)c1cc(COc2ccc(F)cc2F)on1,"inconclusive: 26.9 µM [inhibitor, single point]",–
O=[N+]([O-])c1cccc(-c2nc(-c3ccccn3)no2)c1,active: 4.78 µM,–
O=C(CCc1nc2ccccc2[nH]1)Nc1ccccc1,–,inactive: -1.14%
CC(=O)c1ccc2oc3ccccc3c(=O)c2c1,"inconclusive: 9.53 µM [inhibitor, partial curve, poor fit]",–
CCCCNc1nc2ccccc2nc1NS(=O)(=O)c1ccc(F)cc1,–,inactive: 0.447%
Cc1c(CCC(=O)O)c(=O)oc2cc3occ(-c4ccc(Cl)cc4)c3cc12,active: 16.9 µM,–
CCCOc1ccc(C(=O)NNC(=S)NC(C)=O)cc1,"inconclusive: 16.9 µM [inhibitor, partial curve]",–
COC(=O)c1ccc(NS(=O)(=O)c2ccc(Cl)cc2)o1,"inconclusive: 19 µM [inhibitor, partial curve]",–
CC(=O)/C(=N\Nc1ccc(C)cc1)Sc1nncn1C,–,inactive: 0.312%
CCC(C)N(C(=O)Cn1nnc2ccccc21)C(C(=O)Nc1ccc(F)cc1)c1cccc(OC)c1 (configuration not stated),–,inactive: 0.589%
CCN1C(=O)/C(=C/N2CCc3ccccc32)SC1=S,"inconclusive: 1.9 µM [inhibitor, full curve]",–
COc1cccc(NC(=O)CCc2nc(-c3ccccc3F)no2)c1,"inconclusive: 23.9 µM [inhibitor, partial curve, poor fit]",–
Cc1cccc(N2CCN(C(=O)c3cc4c(=O)[nH]c5ccc(C)cc5c4s3)CC2C)c1 (configuration not stated),–,inactive: -7.22%
COc1ccc(CNC(=O)CSCc2cnn(-c3ccccc3)c2-n2cccc2)cc1OC,–,inactive: -19.8%

SMILES,Potency,"activity change, negative = inhibition"
C=CCn1c(SCC(=O)Nc2ccc3c(c2)OCCO3)nnc1-c1ccccn1,"inconclusive: 23.9 µM [inhibitor, single point]",–
CCn1c(=O)n(CC(=O)NCC2CCCO2)c(=O)c2c3c(sc21)COC(C)(C)C3 (configuration not stated),–,inactive: 0.488%
CCOC(=O)Cc1csc(NC(=O)Nc2ccc(F)cc2)n1,active: 10.7 µM,–
COc1ccc(Nc2cc(C(=O)NCCCN3CCN(C)CC3)c3ccccc3n2)cc1OC,"inconclusive: 23.9 µM [inhibitor, single point]",–
COc1cccc(S(=O)(=O)NC2CCN(C#N)C2)c1 (configuration not stated),–,inactive: 1.86%
CCCN(CCC)C(=O)c1c[nH]c2ccc(S(=O)(=O)N(C)c3ccc(OCC)cc3)cc2c1=O,"inconclusive: 37.9 µM [inhibitor, partial curve, poor fit]",–
COc1ccc(-c2nc3ncccc3n2O)cc1,"inconclusive: 37.9 µM [inhibitor, single point]",–
OC(COc1ccc(OCc2ccccc2)cc1)CN1CCCCC1 (configuration not stated),"inconclusive: 26.9 µM [inhibitor, single point]",–
COc1cccc(C(=O)NCC(=O)N2CCN(c3ccc(C(F)(F)F)cn3)CC2)c1,–,inactive: 2.81%
Cc1ccc2oc(C(=O)Nc3nc(-c4ccc(F)cc4)ns3)c(C)c2c1,"inconclusive: 5.36 µM [inhibitor, full curve]",–
CCOc1ccc2oc(C(=O)OC(C(=O)NC(N)=O)C(C)C)c(C)c2c1 (configuration not stated),"inconclusive: 37.9 µM [inhibitor, partial curve, poor fit]",–
O=C(/C=C/c1ccco1)Nc1ccccc1C(=O)O,active: 2.69 µM,–
Cc1ccc(N=Nc2c(C)[nH]n(C(N)=S)c2=O)cc1,active: 2.69 µM,–
COc1ccc2cc3cc(C(=O)N4CCCCC4C)oc3nc2c1 (configuration not stated),active: 3.38 µM,–
CN(C)c1ccc(-c2nc3ccccc3n2C)cc1,active: 0.269 µM,–
Cc1cc(NC(=O)CSC2=NS(=O)(=O)c3cc(Cl)ccc3N2)no1,"inconclusive: 37.9 µM [inhibitor, single point]",–
CC(C)(C)c1ccc(C(=O)Nc2nc3nc(-c4ccccc4)cc(=O)n3[nH]2)cc1,"inconclusive: 9.53 µM [inhibitor, partial curve]",–
CC(C)(C)[C@@H]1C=C(C(=O)Nc2ccccc2)O[C@H](OCc2ccc(CO)cc2)C1,"inconclusive: 21.3 µM [inhibitor, partial curve, poor fit]",–
CC(C)=NNc1nc(-c2ccccc2)c(C)s1,"inconclusive: 21.3 µM [inhibitor, partial curve, poor fit]",–
O=C(O)c1ccccc1CSc1nc2ccccc2[nH]1,active: 10.7 µM,–
COc1cccc(CN2CCNC(=O)C2CC(=O)NCCCN2CCCC2=O)c1 (configuration not stated),–,inactive: 1.64%
CCCCc1ccc(-c2nc(N)n[nH]2)cc1,active: 6.01 µM,–
COc1ccc(C(C(=O)Nc2ccc(C(C)C)cc2)N(C)C(=O)Cc2cccs2)cc1 (configuration not stated),–,inactive: 1.17%
CC(Oc1ccc(F)cc1Br)c1nc2ccccc2c(=O)[nH]1 (configuration not stated),"inconclusive: 37.9 µM [inhibitor, partial curve, poor fit]",–
CS(=O)(=O)N1N=C(c2ccc3nccnc3c2)CC1c1ccccc1 (configuration not stated),"inconclusive: 42.6 µM [inhibitor, partial curve, poor fit]",–
